Experimental data taken from the antibiotic and cytotoxicity screens of Wong et al. (2023).
Some of the results follow.

Columns and labels:
HSkMC = human skeletal muscle cells; test: cytotoxicity call (relative viability < 0.9); conditions: 10 µM
HepG2 = test: cytotoxicity call (relative viability < 0.9); conditions: 10 µM
S. aureus RN4220 = test: growth inhibition call (relative growth <= 0.2); conditions: 50 µM

Row | SMILES | cytotoxicity call (HSkMC) | cytotoxicity call (HepG2) | growth inhibition call (S. aureus RN4220)
1 | COc1ccc(S(=O)(=O)Nc2ccc3c(c2)CC(=O)N([C@@H](C)CO)C[C@@H](C)[C@@H](CN(C)S(=O)(=O)c2ccc(C)cc2)O3)cc1 | inactive | inactive | inactive
2 | C[C@@H]1CCCCO[C@H](CN(C)C(=O)CCC(F)(F)F)[C@@H](C)CN([C@H](C)CO)C(=O)c2cc(NC(=O)c3ccccc3)ccc2O1 | inactive | inactive | inactive
3 | CCCC(=O)N1CC[C@]2(CC1)CN([C@H](CO)c1c2c2ccc(cc2n1C)OC)C(=O)CN1CCOCC1 | inactive | inactive | inactive
4 | CCOC(=O)c1cc2c(c(-c3cccc(-c4cccc(OC)c4)c3)n1)[C@@H](CCO)N(S(=O)C(C)(C)C)C2 (stereo partly specified) | inactive | inactive | inactive
5 | COc1ccc(NC(=O)N(C)C[C@H]2OCCCC[C@@H](C)Oc3ccc(NS(=O)(=O)c4ccccc4)cc3C(=O)N([C@H](C)CO)C[C@H]2C)cc1 | inactive | inactive | inactive
6 | COc1ccc(CN(C)C[C@@H]2OCCCC[C@@H](C)Oc3ccc(NC(=O)Nc4cccc5ccccc45)cc3C(=O)N([C@H](C)CO)C[C@H]2C)cc1 | active | active | inactive
7 | CCCNC(=O)N(C)C[C@@H]1Oc2cc(C#Cc3ccccn3)ccc2S(=O)(=O)N([C@@H](C)CO)C[C@H]1C | inactive | inactive | inactive
8 | C[C@@H]1CN([C@@H](C)CO)C(=O)c2cccc(NC(=O)C3CC3)c2O[C@H]1CN(C)C(=O)Nc1ccc2c(c1)OCO2 | inactive | inactive | inactive
9 | C[C@H](CO)N1C[C@H](C)[C@@H](CN(C)Cc2ccc3c(c2)OCCN3C)OCc2ccccc2-c2c(n(C)c3ccccc23)C1=O | inactive | inactive | inactive
10 | CC[C@H](C)[C@H](NC(=O)[C@H](Cc1ccc(O)cc1)NC(=O)[C@@H](NC(=O)[C@@H](CCCNC(=N)N)NC(=O)[C@@H](N)CC(=O)O)C(C)C)C(=O)N[C@@H](Cc1cnc[nH]1)C(=O)N1CCC[C@@H]1C(=O)N[C@H](Cc1ccccc1)C(=O)O | inactive | inactive | inactive
11 | C[C@@H]1CN([C@@H](C)CO)S(=O)(=O)c2ccc(C#Cc3ccccc3F)cc2O[C@@H]1CN(C)C(=O)Cc1cccnc1 | inactive | active | inactive
12 | C[C@@H]1CCCCO[C@H](CN(C)S(=O)(=O)c2ccccc2)[C@@H](C)CN([C@H](C)CO)C(=O)c2cc(NC(=O)Nc3ccc(F)cc3)ccc2O1 | inactive | inactive | inactive
13 | C[C@H]1CN([C@@H](C)CO)C(=O)c2cc(NS(=O)(=O)c3cccs3)ccc2O[C@@H]1CN(C)S(=O)(=O)c1cn(C)cn1 | inactive | inactive | inactive
14 | COc1ccc(CNS(=O)(=O)N(C)C)cc1 | inactive | inactive | inactive
15 | O=C(O)[C@H]1CCCCN1 | inactive | inactive | inactive
16 | O=c1[nH]c2c(=O)nc[nH]c2nc1-c1ccccc1 | inactive | inactive | inactive
17 | Cc1ccccc1-n1cc[nH]c1=S | inactive | inactive | inactive
18 | O=C(NCc1ccccc1)[C@@H](c1ccco1)N(Cc1ccc(Br)cc1)C(=O)Cc1ccccc1 | inactive | inactive | inactive
19 | C[C@H](CO)N1C[C@H](C)[C@@H](CN(C)CC2CCOCC2)Oc2cc(Br)ccc2S1(=O)=O | inactive | inactive | inactive
20 | O=C(NCc1ccccc1)[C@@H]1c2ccccc2C(=O)N(Cc2ccccc2C(F)(F)F)[C@H]1c1ccc(CO)cc1 | inactive | inactive | inactive
21 | COC(=O)c1c(CC[C@@H](CO)NC(=O)N2CCC[C@H]2Cn2cc(Cc3ccccc3)nn2)oc(C(C)=O)c1C(=O)OC | inactive | inactive | inactive
22 | O=C(N[C@@H](c1ccccc1)c1ccc2ccccc2n1)C1CCN(Cc2cccc(C(F)(F)F)c2)CC1 | inactive | inactive | inactive
23 | C[C@H]1CN([C@@H](C)CO)C(=O)c2cccc(NC(=O)c3nc4ccccc4s3)c2O[C@H]1CN(C)Cc1ccc(Cl)c(Cl)c1 | inactive | inactive | inactive
24 | C[C@@H]1CN([C@H](C)CO)C(=O)c2cc(C#C[C@@H](C)O)cnc2O[C@H]1CN(C)C(=O)CN1CCOCC1 | inactive | inactive | inactive
25 | COCCOC(=O)N1C(=O)[C@@]2(c3ccccc31)[C@H](C(=O)Nc1nc3ccccc3s1)[C@H]1C(=O)O[C@H](c3ccccc3)[C@H](c3ccccc3)N1[C@@H]2c1ccccc1OCCO | inactive | inactive | inactive
26 | C[C@@H]1CCCCO[C@@H](CN(C)C(=O)Nc2cccc3ccccc23)[C@H](C)CN([C@H](C)CO)C(=O)c2cc(NC(=O)c3ccncc3)ccc2O1 | inactive | inactive | inactive

Row | SMILES | cytotoxicity call (HSkMC) | cytotoxicity call (HepG2) | growth inhibition call (S. aureus RN4220)
27 | C[C@@H]1CN([C@H](C)CO)C(=O)Cc2cc(NC(=O)Nc3ccc(F)cc3)ccc2O[C@H]1CN(C)CC1CCCCC1 | inactive | active | inactive
28 | COCC#Cc1ccc([C@H]2[C@H](CO)N3C(=O)CN(C(=O)c4ccncc4)C[C@@H]23)cc1 | inactive | inactive | inactive
29 | C[C@@H]1CN([C@@H](C)CO)C(=O)Cc2cc(NS(=O)(=O)c3ccccc3)ccc2O[C@@H]1CN(C)S(C)(=O)=O | inactive | inactive | inactive
30 | C[C@H](CO)N1C[C@H](C)[C@H](CN(C)S(C)(=O)=O)Oc2ccc(NS(=O)(=O)c3ccccc3)cc2C1=O | inactive | inactive | inactive
31 | C[C@@H]1CN([C@@H](C)CO)C(=O)c2cc(NS(=O)(=O)c3cn(C)cn3)ccc2O[C@@H](C)CCCCO[C@H]1CN(C)S(=O)(=O)c1ccc(F)cc1 | inactive | inactive | inactive
32 | O=C(O)c1n[nH]c2c1CCCC2 | inactive | inactive | inactive
33 | Cc1noc(C)c1NC(=O)N(C)C[C@@H]1OCCCC[C@@H](C)Oc2ccc(NC(=O)c3ccccc3)cc2C(=O)N([C@@H](C)CO)C[C@H]1C | inactive | inactive | inactive
34 | C[C@@H]1CCCCO[C@@H](CN(C)C(=O)Nc2ccccc2)[C@@H](C)CN([C@H](C)CO)C(=O)c2cc(NC(=O)NC3CCCCC3)ccc2O1 | inactive | inactive | inactive
35 | C[C@H]1CCCCO[C@@H](CN(C)C(=O)Nc2ccccc2)[C@@H](C)CN([C@@H](C)CO)C(=O)c2cc(NC(=O)Nc3ccccc3)ccc2O1 | inactive | inactive | inactive
36 | CO[C@H](CN(C)C(=O)c1ccc2c(c1)OCO2)[C@@H](C)CN([C@H](C)CO)S(=O)(=O)c1ccc(Cl)cc1 | inactive | inactive | inactive
37 | COCC#Cc1ccc2c(c1)O[C@H](CN(C)C(=O)Nc1ccc(OC)cc1)[C@H](C)CN([C@@H](C)CO)S2(=O)=O | inactive | inactive | inactive
38 | C[C@@H]1CN([C@H](C)CO)C(=O)c2cc(Br)cnc2O[C@H]1CN(C)S(=O)(=O)c1ccc(F)cc1 | inactive | inactive | inactive
39 | CN(C)C(=O)c1ccc(-c2cccc(-c3nc(C(=O)NC4CCC4)cc4c3[C@H](CCO)N([S@@](=O)C(C)(C)C)C4)c2)cc1 | inactive | inactive | inactive
40 | COC(=O)C1=C2CC[C@@H](COC(=O)NCCCCCC(=O)NO)NC(=O)N[C@H](Cc3ccccc3)c3cn(nn3)C[C@H](Cc3ccccc3)NC(=O)c3oc(c(C(=O)OC)c3C(=O)OC)CC[C@@H](COC(=O)NCCCCCC(=O)NO)NC(=O)N[C@H](Cc3ccccc3)c3cn(nn3)C[C@H](Cc3ccccc3)NC(=O)C(=C1C(=O)OC)O2 | inactive | inactive | inactive
41 | C[C@H]1CN([C@@H](C)CO)C(=O)Cc2cc(NC(=O)NC3CCCCC3)ccc2O[C@H]1CN(C)C(=O)Nc1cccc2ccccc12 | inactive | active | inactive
42 | COc1ccc(S(=O)(=O)Nc2ccc3c(c2)CC(=O)N([C@@H](C)CO)C[C@H](C)[C@@H](CN(C)Cc2ccc(Oc4ccccc4)cc2)O3)cc1 | active | active | inactive
43 | C[C@@H]1CCCCO[C@H](CN(C)Cc2ccc(C(F)(F)F)cc2)[C@@H](C)CN([C@@H](C)CO)C(=O)c2cc(NC(=O)Nc3ccc(F)cc3)ccc2O1 | inactive | active | inactive
44 | C[C@@H]1CN([C@H](C)CO)C(=O)c2cccc(NS(=O)(=O)c3ccccc3)c2O[C@@H]1CN(C)Cc1ccc(Oc2ccccc2)cc1 | inactive | inactive | inactive
45 | Cn1c(=O)[nH]c(=O)c2[nH]cnc21 | inactive | inactive | inactive
46 | CN(C)CCCNC(=O)C[C@H]1CC[C@H](NS(=O)(=O)c2ccccc2)[C@@H](CO)O1 | inactive | inactive | inactive
47 | COc1ccc(NC(=O)N(C)C[C@H]2Oc3ccc(NC(=O)Nc4ccc(C(F)(F)F)cc4)cc3C(=O)N([C@H](C)CO)C[C@H]2C)cc1 | inactive | inactive | inactive
48 | C[C@H]1CN([C@@H](C)CO)C(=O)c2cccc(NC(=O)C3CC3)c2O[C@H]1CN(C)S(=O)(=O)c1ccccc1 | inactive | inactive | inactive
49 | C[C@H]1CN([C@@H](C)CO)C(=O)Cc2cc(NS(C)(=O)=O)ccc2O[C@H]1CN(C)Cc1ccc(C(=O)O)cc1 | inactive | inactive | inactive
50 | Cc1ccc(S(=O)(=O)Nc2ccc3c(c2)CC(=O)N([C@H](C)CO)C[C@H](C)[C@@H](CN(C)C(=O)Nc2ccc(C(F)(F)F)cc2)O3)cc1 | inactive | inactive | inactive
51 | C[C@H](CO)N1C[C@H](C)[C@H](CN(C)C(=O)Nc2ccccc2)Oc2c(NC(=O)CCCCCC(=O)Nc3ccccc3N)cccc2C1=O | inactive | inactive | inactive
52 | C[C@@H]1CCCCO[C@H](CN(C)C(=O)CCC(F)(F)F)[C@@H](C)CN([C@H](C)CO)C(=O)c2cc(NS(=O)(=O)c3ccc(Cl)cc3)ccc2O1 | inactive | inactive | inactive
